In PubChem BioAssay AID504333 (National Center for Advancing Translational Sciences (NCATS), 2011):
The whole screen tested about 360,000 compounds, of which about 16,000 (4.4%) were called active. The shares of active, inactive and inconclusive entries below differ from those in the screen. The call rests on the fitted dose curve; in most records, active means well fitted inhibition curve with a large enough effect; inconclusive means small, poorly fitted or top-dose-only effect; inactive means no such curve, though single readings can be large or run the other way. Potencies of inconclusive entries are doubtful fits and often do not repeat.

target: Bromodomain adjacent to zinc finger domain protein 2B (Homo sapiens) (UniProt Q9UIF8); experiment: qHTS Assay for Inhibitors of BAZ2B; details: AlphaScreen BAZ2B-H3K14Ac peptide displacement; activity change, negative = inhibition: at 114 µM (top of the series) unless noted; further: nearly all actives have a fitted effect of over 60% in size
Method in brief: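 Inhibition is scored as reduced AlphaScreen emission. The BAZ2B/b-H3(5-23)K14Ac complex (50 nM each) in PBS pH 7.4, 0.01% Tween-20 meets compound (up to 110 uM) for 30 min at RT before bead addition.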
On the % scale 0 is the no-effect control and ±100 the full control effect; potency means the concentration at half of the fitted maximal effect; tags describe the fitted curve by direction and shape.

Chain of UniProt Q9UIF8 (Q9UIF8 whole entry, looked up, the tested form may be a part): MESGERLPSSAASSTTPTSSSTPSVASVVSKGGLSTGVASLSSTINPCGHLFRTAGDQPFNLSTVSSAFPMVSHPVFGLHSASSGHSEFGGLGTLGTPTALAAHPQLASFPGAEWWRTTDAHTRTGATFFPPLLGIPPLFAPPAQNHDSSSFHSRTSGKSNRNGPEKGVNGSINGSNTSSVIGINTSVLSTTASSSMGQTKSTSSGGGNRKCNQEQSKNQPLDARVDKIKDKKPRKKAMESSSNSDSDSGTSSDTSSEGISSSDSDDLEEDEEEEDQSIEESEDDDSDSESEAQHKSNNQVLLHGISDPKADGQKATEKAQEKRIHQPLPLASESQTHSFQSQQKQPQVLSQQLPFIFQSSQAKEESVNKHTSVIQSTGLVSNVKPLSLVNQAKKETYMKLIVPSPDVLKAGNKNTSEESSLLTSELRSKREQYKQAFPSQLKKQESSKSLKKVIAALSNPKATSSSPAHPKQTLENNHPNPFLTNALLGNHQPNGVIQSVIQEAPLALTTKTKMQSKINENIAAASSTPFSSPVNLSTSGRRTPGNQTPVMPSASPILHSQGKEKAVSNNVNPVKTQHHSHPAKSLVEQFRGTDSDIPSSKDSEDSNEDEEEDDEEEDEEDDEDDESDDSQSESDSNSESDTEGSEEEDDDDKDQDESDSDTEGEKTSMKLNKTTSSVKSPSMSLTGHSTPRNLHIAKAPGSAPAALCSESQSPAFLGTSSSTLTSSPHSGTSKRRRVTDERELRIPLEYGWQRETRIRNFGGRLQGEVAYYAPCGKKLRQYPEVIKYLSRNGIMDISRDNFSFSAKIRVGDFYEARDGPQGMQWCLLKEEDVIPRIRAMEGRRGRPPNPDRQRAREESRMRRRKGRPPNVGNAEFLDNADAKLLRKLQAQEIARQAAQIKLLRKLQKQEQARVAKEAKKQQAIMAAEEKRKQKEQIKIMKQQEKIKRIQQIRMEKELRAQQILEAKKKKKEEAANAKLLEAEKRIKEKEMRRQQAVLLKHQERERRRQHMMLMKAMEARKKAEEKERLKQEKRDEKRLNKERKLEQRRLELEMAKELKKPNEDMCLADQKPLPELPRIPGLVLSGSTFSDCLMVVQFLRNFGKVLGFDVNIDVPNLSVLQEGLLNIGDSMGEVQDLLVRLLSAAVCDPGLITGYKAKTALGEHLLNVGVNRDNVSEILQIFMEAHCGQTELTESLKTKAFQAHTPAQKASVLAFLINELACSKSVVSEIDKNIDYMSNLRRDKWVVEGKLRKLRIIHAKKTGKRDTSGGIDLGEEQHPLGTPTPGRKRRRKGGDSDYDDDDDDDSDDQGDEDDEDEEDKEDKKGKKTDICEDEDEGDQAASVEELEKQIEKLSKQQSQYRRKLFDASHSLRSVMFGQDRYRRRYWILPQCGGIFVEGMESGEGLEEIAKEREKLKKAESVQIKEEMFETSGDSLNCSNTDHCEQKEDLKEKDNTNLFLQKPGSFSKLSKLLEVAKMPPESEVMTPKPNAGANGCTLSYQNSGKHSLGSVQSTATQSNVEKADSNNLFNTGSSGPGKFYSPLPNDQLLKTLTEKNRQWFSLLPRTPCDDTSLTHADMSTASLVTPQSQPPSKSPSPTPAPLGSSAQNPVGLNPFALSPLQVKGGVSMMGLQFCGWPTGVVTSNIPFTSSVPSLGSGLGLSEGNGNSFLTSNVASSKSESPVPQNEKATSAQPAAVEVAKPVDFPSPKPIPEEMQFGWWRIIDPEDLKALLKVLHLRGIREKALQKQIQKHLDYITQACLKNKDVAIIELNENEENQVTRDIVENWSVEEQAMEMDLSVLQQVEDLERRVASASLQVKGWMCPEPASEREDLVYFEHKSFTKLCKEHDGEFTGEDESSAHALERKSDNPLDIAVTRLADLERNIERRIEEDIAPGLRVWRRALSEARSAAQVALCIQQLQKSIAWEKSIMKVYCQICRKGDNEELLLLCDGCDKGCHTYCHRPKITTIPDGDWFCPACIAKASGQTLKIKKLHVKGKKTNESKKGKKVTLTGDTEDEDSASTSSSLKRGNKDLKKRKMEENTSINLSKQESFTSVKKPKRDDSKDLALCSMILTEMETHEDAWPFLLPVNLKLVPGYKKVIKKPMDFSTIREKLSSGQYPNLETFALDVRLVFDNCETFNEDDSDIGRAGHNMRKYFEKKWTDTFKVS

Q: Which Potency does the source give for `Cc1cc2ccccc2n1CCNC(=O)c1cccs1` here?
A: inconclusive: 35.5 µM [inhibitor, full curve]

Q: For `C=C(C)COc1ccc(-c2[nH]ncc2-c2ccc(OC)c(OC)c2)c(O)c1`, which Potency is on record?
A: inconclusive: 28.2 µM [inhibitor, full curve]

Q: Which “activity change, negative = inhibition” value does the source give for `CCc1cc(C(=O)N2CCN(c3ccccc3)CC2)no1` here?
A: inactive: 2.1%

Q: How did the “activity change, negative = inhibition” value turn out when `CCOc1ccccc1N(CC(=O)Nc1ccccc1F)S(=O)(=O)c1ccccc1` was run?
A: inactive: -21.1%

Q: For `O=C(NCc1ccco1)c1cccc(S(=O)(=O)N2CCN(Cc3ccccc3)CC2)c1`, which Potency is on record?
A: inconclusive: 89.1 µM [inhibitor, single point]

Q: Which “activity change, negative = inhibition” value does the source give for `Cc1ccc2cc(CN(C)C(=O)c3cccc(Cl)c3)c(=O)[nH]c2c1` here?
A: inactive: -5.23%

Q: For `COc1ccc(C(=O)Oc2coc(CSc3nnc(NC(=O)c4cccs4)s3)cc2=O)cc1`, which Potency is on record?
A: inconclusive: 89.1 µM [inhibitor, single point]

Q: Which “activity change, negative = inhibition” value does the source give for `Cc1ccc(NC(=O)c2ccc(S(=O)(=O)N3CCCC3)cc2)nc1` here?
A: inactive: -2.38%

Q: For `Cc1ccc(NC(=O)CSc2ccc3nnc(CCNS(=O)(=O)c4ccccc4)n3n2)cc1Cl`, which Potency is on record?
A: inconclusive: 70.8 µM [inhibitor, single point]

Q: `Cc1ccc(Cl)cc1NC(=O)N1CCC(CN2CCCCCC2)CC1` was tested. Which “activity change, negative = inhibition” value did it give?
A: inactive: 3.02%

Q: How did the Potency turn out when `O=C(CSCc1ccccc1Cl)Nc1ccc2c(c1)OCCO2` was run?
A: inconclusive: 63.1 µM [inhibitor, partial curve, poor fit]

Q: For `Cc1nn(C)c2c1c(C(F)(F)F)cc(=O)n2CC(=O)N1CCCCC1`, which “activity change, negative = inhibition” value is on record?
A: inactive: -14.6%

Q: With `C=CCSc1nc(-c2ccccc2)c(C#N)c(=O)[nH]1` as the compound, how does the Potency read?
A: inconclusive: 89.1 µM [inhibitor, single point]

Q: Which Potency does the source give for `Cc1ccc(S(=O)(=O)CC(=O)Nc2nccs2)cc1` here?
A: inconclusive: 89.1 µM [inhibitor, single point]

Q: `CN1CCC(=NNC(=O)C(=O)Nc2ccc(F)cc2)CC1` was tested. Which “activity change, negative = inhibition” value did it give?
A: inactive: -17.1%

Q: `COc1ccc(C(=O)Nc2nnc(S(=O)(=O)N3CCCc4ccccc43)s2)cc1` was tested. Which Potency did it give?
A: inconclusive: 7.94 µM [inhibitor, full curve]

Q: Which “activity change, negative = inhibition” value does the source give for `CCn1cc(C(=O)N2CCN(C(=O)c3ccco3)CC2)c2cc(OC)c(OC)cc2c1=O` here?
A: inactive: 8.99%

Q: How did the Potency turn out when `CCOC(=O)c1cc2c(=O)n3cccc(C)c3nc2n(Cc2ccco2)c1=NC(=O)c1cccnc1` was run?
A: active: 79.4 µM

Q: With `O=C1/C(=C/c2ccc(O)cc2)SC(=S)N1CC1CCCO1` (centres undefined) as the compound, how does the Potency read?
A: inconclusive: 35.5 µM [inhibitor, partial curve]

Q: Which Potency does the source give for `COc1cc(C(=O)NC2CC3CCCC(C2)N3Cc2ccccc2)cc(OC)c1OC` (centres undefined) here?
A: inconclusive: 89.1 µM [inhibitor, single point]

Q: With `COc1cccc(-n2cc(C(=O)OCc3ccc(F)c(F)c3)c3ccccc3c2=O)c1` as the compound, how does the “activity change, negative = inhibition” value read?
A: inactive: 14.4%

Q: How did the Potency turn out when `Cc1cccc(NC(=S)Nc2cccc3ccccc23)c1` was run?
A: inconclusive: 63.1 µM [inhibitor, partial curve, poor fit]

Q: For `COc1cc(C(=O)NCC(=O)N/N=C/c2cccc(OC(=O)c3ccco3)c2)cc(OC)c1OC`, which “activity change, negative = inhibition” value is on record?
A: inactive: -25.7%

Q: `NC(=O)CCC(NS(=O)(=O)c1ccc(Cl)cc1)C(=O)NCC1CCCCC1` (centres undefined) was tested. Which “activity change, negative = inhibition” value did it give?
A: inactive: -0.0837%

Q: How did the Potency turn out when `CC(C)c1ccc(N2C(=O)[C@@H]3Cc4ccccc4CN3C2=O)cc1` was run?
A: inconclusive: 89.1 µM [inhibitor, single point]

Q: For `O=C(CCn1c(=O)[nH]c2ccsc2c1=O)N1CC(=O)N(CCc2ccccc2)C(=O)C1`, which “activity change, negative = inhibition” value is on record?
A: inactive: 3.99%

Q: Which “activity change, negative = inhibition” value does the source give for `CC(OC(=O)Cc1ccccc1[N+](=O)[O-])C(=O)NC(=O)NC1CCCCC1` (centres undefined) here?
A: inactive: -13.3%

Q: How did the Potency turn out when `CCOc1ccc(OCC)c(NC(=O)Cn2c(C)nc3ccccc3c2=O)c1` was run?
A: inconclusive: 1.12 µM [inhibitor, full curve, poor fit]

Q: How did the Potency turn out when `CCN1CCc2nc3sc(C(=O)N4CCc5ccccc5C4)c(N)c3cc2C1` was run?
A: inconclusive: 50.1 µM [inhibitor, partial curve]

Q: `CCCN(C(=O)c1cc(CC)c(C)s1)c1c(N)n(Cc2ccccc2)c(=O)[nH]c1=O` was tested. Which “activity change, negative = inhibition” value did it give?
A: inactive: 2.3%

Q: How did the Potency turn out when `Cc1cccc(N2CCN(C(=O)c3cc(S(=O)(=O)N4CCCC4)cn3C)CC2)c1C` was run?
A: inconclusive: 50.1 µM [inhibitor, partial curve]

Q: How did the “activity change, negative = inhibition” value turn out when `CCOC(=O)c1c(NC(=O)CSc2cn(CCNC(=O)c3ccc(OC)c(OC)c3)c3ccccc23)sc2c1CCCC2` was run?
A: inactive: -33%

Q: With `COc1cccc(CNC(=O)c2cc(S(=O)(=O)N3CCCCCC3)cn2C)c1` as the compound, how does the “activity change, negative = inhibition” value read?
A: inactive: -15.3%

Q: `O=C(Cn1cnc2ccccc21)Nc1ccc(C(=O)O)cc1` was tested. Which “activity change, negative = inhibition” value did it give?
A: inactive: -0.972%

Q: With `O=c1c2c3c(sc2n(CCN2CCCC2)c(=O)n1Cc1ccccc1)CCCCC3` as the compound, how does the Potency read?
A: active: 89.1 µM

Q: With `Cc1cccc(OCC(=O)N/N=C\c2cccn2C)c1C` as the compound, how does the Potency read?
A: inconclusive: 28.2 µM [inhibitor, full curve, poor fit]

Q: `Cc1ccc(CNC(=O)Nc2cccs2)cc1` was tested. Which “activity change, negative = inhibition” value did it give?
A: inactive: -7.16%

Q: How did the “activity change, negative = inhibition” value turn out when `CCOC(=O)N1CCN(C(=O)CN(c2cccc(Cl)c2)S(=O)(=O)c2ccccc2)CC1` was run?
A: inactive: -3.46%

Q: With `CCNC(=O)NC(=O)COC(=O)c1cccc(NS(=O)(=O)/C=C/c2ccccc2)c1` as the compound, how does the Potency read?
A: inconclusive: 89.1 µM [inhibitor, single point]

Q: `CC(C)c1ccc(NC2CCCN(C(=O)CCCn3cncn3)C2)cc1` (centres undefined) was tested. Which Potency did it give?
A: inconclusive: 89.1 µM [inhibitor, single point]

Q: For `COc1ccc(C2C3(C#N)C(N)=NC(OC)(OC)C23C#N)cc1` (centres undefined), which Potency is on record?
A: inconclusive: 79.4 µM [inhibitor, single point]

Q: For `COc1ccc(NC(=O)CSc2ccc(-c3ccco3)nn2)c(OC)c1`, which Potency is on record?
A: inconclusive: 50.1 µM [inhibitor, partial curve]

Q: How did the “activity change, negative = inhibition” value turn out when `COC(=O)COc1ccc2cccc(-n3cnnn3)c2c1` was run?
A: inactive: -14.8%

Q: `O=C(CCCN1C(=O)/C(=C/c2cccs2)SC1=S)NNC(=O)c1ccncc1` was tested. Which Potency did it give?
A: inconclusive: 39.8 µM [inhibitor, partial curve]

Q: `CC(C)Nc1nc(NC(C)C)nc(N(C)C(N)=O)n1` was tested. Which Potency did it give?
A: inconclusive: 79.4 µM [inhibitor, single point]

Q: Which “activity change, negative = inhibition” value does the source give for `COC(=O)c1ccc(NC(=O)CC2Nc3cc(C)c(C)cc3NC2=O)cc1` (centres undefined) here?
A: inactive: -2.24%

Q: For `COc1ccccc1N1CCN(CC(=O)Nc2ccccc2C(=O)NC(C)c2ccccc2)CC1` (centres undefined), which “activity change, negative = inhibition” value is on record?
A: inactive: -8.2%

Q: How did the Potency turn out when `O=C1C(Cl)=C(Nc2ccc3cn[nH]c3c2)C(=O)c2ccccc21` was run?
A: active: 8.91 µM

Q: For `Nc1ccc(Oc2ccc(Cl)cc2)cc1`, which Potency is on record?
A: inconclusive: 44.7 µM [inhibitor, partial curve]

Q: How did the Potency turn out when `COc1ccc(C(=O)N2CCN(c3nc(C4CC4)nc4sc(C)c(C)c34)CC2)cc1` was run?
A: inconclusive: 50.1 µM [inhibitor, partial curve]

Q: With `Cc1ccc(NC(=O)c2nn(C34CC5CC(CC(C5)C3)C4)cc2[N+](=O)[O-])cc1` as the compound, how does the Potency read?
A: inconclusive: 50.1 µM [inhibitor, partial curve, poor fit]

Q: Which “activity change, negative = inhibition” value does the source give for `O=c1[nH]c2cccnc2n1-c1cccc([N+](=O)[O-])c1` here?
A: inactive: -2.62%

Q: `COc1cccc(N2CCc3c(C)nc4ccc(Cl)cc4c32)c1` was tested. Which “activity change, negative = inhibition” value did it give?
A: inactive: -0.624%

Q: Which Potency does the source give for `CCOc1ccc(-c2c(=O)n(OCc3nc4ccccc4[nH]3)c3ccccc3[n+]2[O-])cc1` here?
A: inconclusive: 89.1 µM [inhibitor, single point]

Q: `O=C(CNC(=O)c1cnccn1)Nc1ccc(F)c(F)c1F` was tested. Which “activity change, negative = inhibition” value did it give?
A: inactive: -1.83%

Q: Which “activity change, negative = inhibition” value does the source give for `O=C(CN(Cc1ccccc1Cl)C(=O)c1csnn1)NCCc1ccccc1` here?
A: inactive: 1.49%

Q: `CCC(C)n1ncn(-c2ccc(N3CCN(c4ccc(OCC5COC(Cn6cncn6)(c6ccc(Cl)cc6Cl)O5)cc4)CC3)cc2)c1=O` (centres undefined) was tested. Which Potency did it give?
A: inconclusive: 20 µM [inhibitor, full curve]

Q: For `CCN1CCN(Cc2ccc(NC(=O)Nc3ccc(SC)cc3)cc2)CC1`, which Potency is on record?
A: inconclusive: 50.1 µM [inhibitor, partial curve]

Q: How did the Potency turn out when `COc1cccc(OCCn2cccc2/C=C2/C(=N)N3OC(C)=CC3=NC2=O)c1` was run?
A: inconclusive: 79.4 µM [inhibitor, single point]

Q: `COc1ccc(CSCC(=O)N/N=C/c2ccc(OCC(=O)NCc3ccco3)cc2)cc1` was tested. Which Potency did it give?
A: inconclusive: 89.1 µM [inhibitor, single point]

Q: With `Cn1cccc1Cc1nnc(SCC(=O)Nc2cccc(F)c2)n1-c1ccc(F)cc1` as the compound, how does the Potency read?
A: inconclusive: 44.7 µM [inhibitor, partial curve]

Q: With `CCOc1ccc(N2Nc3n[nH]c(N)c3N2)cc1` as the compound, how does the Potency read?
A: inconclusive: 39.8 µM [inhibitor, partial curve]

Q: How did the “activity change, negative = inhibition” value turn out when `CCc1cccc(C)c1NC(=O)CCn1c(=O)c2cccn2c2ccccc21` was run?
A: inactive: -3.35%

Q: Which “activity change, negative = inhibition” value does the source give for `O=C(CCNS(=O)(=O)c1ccccc1)OCC(=O)c1ccc[nH]1` here?
A: inactive: 7.35%

Q: `Cc1ccc(-c2cc(C(=O)N(Cc3ccc(C(C)(C)C)cc3)Cc3ccco3)no2)cc1` was tested. Which “activity change, negative = inhibition” value did it give?
A: inactive: -25.9%

Q: Which Potency does the source give for `COc1ccc(C(=S)NCS(=O)(=O)c2ccc(C)cc2)cc1` here?
A: inconclusive: 79.4 µM [inhibitor, single point]

Q: How did the Potency turn out when `Nc1[nH]nc2ncc3cc4ccccc4nc3c12` was run?
A: inconclusive: 44.7 µM [inhibitor, partial curve]

Q: `CC1CCCC(C)N1C(=O)Cn1cc(/C=C2/C(=O)Nc3ccccc32)c2ccccc21` (centres undefined) was tested. Which Potency did it give?
A: inconclusive: 31.6 µM [inhibitor, partial curve]

Q: How did the Potency turn out when `Cc1cccc(C)c1NC(=O)CCCCCC1NC(=O)NC1C` (centres undefined) was run?
A: active: 8.91 µM

Q: `N#CC1=C2N=C(N)c3ccccc3N2C2=C(C(=O)CCC2)C1c1cccc(Cl)c1` (centres undefined) was tested. Which Potency did it give?
A: inconclusive: 70.8 µM [inhibitor, partial curve]

Q: With `Fc1ccc(-c2ccc(/C=N\n3cnnc3)o2)cc1Cl` as the compound, how does the “activity change, negative = inhibition” value read?
A: inactive: -29.9%

Q: For `Cc1ccc(/C(=N/Nc2ncnc3ccccc23)C(=O)O)cc1`, which Potency is on record?
A: inconclusive: 89.1 µM [inhibitor, single point]

Q: With `CC(=O)NCCc1nc2ccccc2n1CCOc1ccccc1` as the compound, how does the “activity change, negative = inhibition” value read?
A: inactive: -2.88%

Q: How did the “activity change, negative = inhibition” value turn out when `CN(C)c1ccc(-c2nc(-c3ccco3)no2)cc1[N+](=O)[O-]` was run?
A: inactive: -16%
